# Measured values taken from the antibiotic and cytotoxicity screens of Wong et al. (2023).
# Some of the results follow.
# Columns and labels:
# HSkMC = human skeletal muscle cells; test: cytotoxicity call (relative viability < 0.9); conditions: 10 µM
# S. aureus RN4220 = test: growth inhibition call (relative growth <= 0.2); conditions: 50 µM
SMILES,cytotoxicity call (HSkMC),growth inhibition call (S. aureus RN4220)
C[C@@H]1CN([C@H](C)CO)C(=O)c2cc(NC(=O)C3CCCCC3)ccc2O[C@@H](C)CCCCO[C@H]1CN(C)Cc1ccc(C(F)(F)F)cc1,inactive,inactive
COc1ccc(CN(C)C[C@@H]2OCCCC[C@@H](C)Oc3ccc(NC(=O)Nc4ccc(F)cc4)cc3C(=O)N([C@@H](C)CO)C[C@@H]2C)cc1,inactive,inactive
Cc1ccc(S(=O)(=O)Nc2ccc3c(c2)C(=O)N([C@@H](C)CO)C[C@@H](C)[C@@H](CN(C)S(=O)(=O)c2c(C)noc2C)O3)cc1,inactive,inactive
COc1ccc(CCN2C(=O)[C@@]3(c4ccc([N+](=O)[O-])cc4)CC(=O)N(C4CCCCC4)[C@@H]3c3ccc(CO)cc32)cc1,inactive,inactive
Cc1ccc(S(=O)(=O)N(C)C[C@H]2OCCCC[C@H](C)Oc3ccc(NC(=O)C4CCCCC4)cc3C(=O)N([C@H](C)CO)C[C@H]2C)cc1,inactive,inactive
C[C@H]1CN([C@@H](C)CO)C(=O)c2cc(NC(=O)Nc3ccc4c(c3)OCO4)ccc2O[C@@H]1CN(C)C(=O)Nc1cccc2ccccc12,inactive,inactive
C[C@H](CO)N1C[C@H](C)[C@@H](CN(C)C(=O)Cc2ccccc2)OCCCC[C@H](C)Oc2ccc(NC(=O)Nc3ccc(F)cc3)cc2C1=O,inactive,inactive
O=C(CCCCCNC(=O)OCCCCO[C@@H]1C[C@H](C2CCCCC2)C=C(C(=O)N2CCOCC2)O1)NO,inactive,inactive
COc1ccc(S(=O)(=O)Nc2ccc3c(c2)C(=O)N([C@@H](C)CO)C[C@H](C)[C@@H](CN(C)S(=O)(=O)c2ccc(Cl)cc2)OCCCC[C@@H](C)O3)cc1,inactive,inactive
